Some of the results follow.
test system: T1, C. trachomatis L2/434/Bu expressing GFP (CTL2-GFP); design: species or system HeLa; C. trachomatis total inclusion area by high-content imaging, normalised to DMSO; conditions: total inclusion area; 28.5 h, 10 µM; inhibitor
T1 construct: L2/434/Bu GFP intracellular growth in HeLa cells
Procedure, shortened: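 Imaging read-out: GFP inclusions and Hoechst nuclei captured by high-content imaging after fixation. Inclusion area/number = chlamydial growth; nuclei count = host cell viability. MIC calculated per earlier method.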

Row | SMILES | % of control remaining
1 | O=S(=O)(Nc1cc(OC2CCNCC2)c2occc2c1)c1c(Cl)cccc1Cl [CBK074989C] | 56.3083
2 | c1ccc(COc2ccccc2-c2cc(N3CCN(c4ccccn4)CC3)ncn2)cc1 [CBK037793] | 100.997
3 | CC1(C)COC(=O)N1C1CCN(C(=O)CNC(=O)c2cccs2)CC1 [CBK044501] | 99.5282
4 | OCCN1CC2(CCN(CCc3cccc4ccccc34)CC2)c2ccccc21 [CBK137013] | 87.0849
5 | O=C(NCCCn1ccnc1)c1cc(-c2cccc(Br)c2)nc2ccccc12 [CBK265476] | 8.937
6 | Cc1ccc(S(=O)(=O)N=C2NCN(CC(=O)O)CN2)cc1 [CBK261983N] | 86.9761
7 | N#Cc1cccnc1N1CCC(NC(=O)c2cc(Cl)c[nH]c2=O)CC1 [CBK306586] | 84.9004
8 | O=C(CC1CCN(C(=O)Cc2ccccc2)CC1)Nc1nc2c(s1)CCCCC2 [CBK286001] | 105.518
9 | Cn1c(CN2CCN(C(=O)NC3CCCCC3)CC2)nc2cc([N+](=O)[O-])ccc21 [CBK268266] | 76.0042
10 | Cc1ccc(S(=O)(=O)OC[C@H]2O[C@@H](n3cc(C)c(=O)[nH]c3=O)C[C@H]2O)cc1 [CBK201165] | 121.494
11 | Fc1ccc(C2=Nn3cnnc3SC2)c(F)c1 [CBK288078] | 84.4173
12 | CCOC(=O)c1cccc(NS(=O)(=O)c2ccc(NC(C)=O)cc2)c1 [CBK034349] | 80.4611
13 | COc1ccc2nc(C)cc(N3CCOCC3)c2c1 [CBK066896] | 97.2249
14 | Cn1ncc2c1NC(=O)CC2c1c[nH]nc1-c1ccccc1 (stereo not drawn) [CBK287941] | 61.7765
15 | COc1ccc(Nc2cc(-c3ccco3)ncn2)cc1OC [CBK090822] | 93.209
16 | O=C(CNC(=O)OCc1ccccc1)NCC(CCCN1CCN(c2ccccc2)CC1)(c1ccccc1)c1ccccc1 [CBK002293] | 75.735
17 | Fc1cccc(F)c1-c1cc(Nc2ccc(N3CCOCC3)cc2)ncn1 [CBK037673] | 83.411
18 | O=C(CN1C(=O)N2CCCN=C2c2ccccc21)NC1CCCCC1 [CBK284396] | 81.5774
19 | Cc1c(Cl)cccc1NC(=S)N1CCC(C(N)=O)(N2CCCCC2)CC1 [CBK264900] | 105.311
20 | CCOC(=O)c1c(NC(=O)CSc2nnc[nH]2)sc2c1CCCC2 [CBK265999] | 128.705
21 | CN(C)c1nc2ccc(OCCN3CCOCC3)cc2s1 [CBK261135] | 104.123
22 | O=C(c1ccc2cc[nH]c2c1)N1CCN(CC2CCOC2)CC1 (stereo not drawn) [CBK305541] | 61.4713
23 | CCCn1c(=N)n(CCOc2cccc(C)c2)c2ccccc21 [CBK264746B] | 82.5259
24 | C=C(C)Cn1c(SCC(C)C)nnc1-c1ccccc1C(=O)NC(C)C [CBK200096] | 86.27
25 | O=C(O)CC(C(=O)N1CCOCC1)N1CCCCC1 (stereo not drawn) [CBK287074] | 88.7519
26 | COC(=O)c1ccc2c(=O)n(CCc3ccc(S(N)(=O)=O)cc3)c(=S)[nH]c2c1 [CBK268238] | 75.0185

Row | SMILES | % of control remaining
27 | O=C(CSc1nnc(-c2ccccc2)c(-c2ccccc2)n1)Nc1ccc([N+](=O)[O-])cc1 [CBK263406] | 79.5455
28 | CCN1CCN(c2ccc(C(=O)OC)cc2NC(=O)c2ccccc2C)CC1 [CBK269902] | 79.5478
29 | COc1ccccc1CNC(=O)c1ccc(Cl)c(S(=O)(=O)N2CCOCC2)c1 [CBK267060] | 112.798
30 | CC1=C[C@@H](CNS(C)(=O)=O)[C@H](C(C)C)C[C@H]1Cc1nnc(-c2ccccc2F)o1 [CBK289226] | 92.9684
31 | COc1cc(NC(=O)c2cc([N+](=O)[O-])ccc2N2CCN(C)CC2)c2ncccc2c1 [CBK263034] | 94.0603
32 | O=C1CC2(CCN(C(=O)c3ccc4cc[nH]c4c3)CC2)Oc2ccc(CN3CCOCC3)cc21 [CBK169469] | 122.671
33 | COc1cc(OC)c(NC(=O)c2c(-c3ccccc3)noc2C)cc1Cl [CBK268167] | 84.7159
34 | Cc1nc(C)c(C(=O)Nc2ccc3c(c2)CN(Cc2ccccc2)C3)o1 [CBK281835] | 85.6737
35 | O=C1NCCCC12CCN(Cc1ccc(F)cc1)CC2 [CBK285345] | 81.6055
36 | COc1ccc(-c2ccnc3[nH]c(=O)ccc23)cc1C [CBK073726] | 113.601
37 | CC(C)(C)C(=O)N[C@H]1CO[C@H]2[C@@H]1OC[C@@H]2Nc1nccc(C2CCCC2)n1 [CBK289530] | 99.1292
38 | Cc1nc(C)n(CC(=O)N[C@H]2C3CCCCC3[C@@H]2c2ccccc2)n1 (stereo partly drawn) [CBK285128] | 94.114
39 | CSc1ncc(CNC(=O)CC2CCc3ccccc32)n1C (stereo not drawn) [CBK307450] | 70.2802
40 | COc1cc(CN2CCC3(CC2)CN(S(C)(=O)=O)c2ccccc23)cc(OC)c1OC [CBK126669] | 110.186
41 | CC(C)(C)c1ccc(S(=O)(=O)N2CCNC(=O)C2)cc1 [CBK051238] | 92.0125
42 | O=S1(=O)N=C(N2CCN(Cc3ccc4c(c3)OCO4)CC2)c2ccccc21 [CBK266064] | 75.8817
43 | O=C(O)Cn1cc(C(C(=O)O)N2CCN(c3ccccc3)CC2)c2ccccc21 (stereo not drawn) [CBK286625] | 97.1376
44 | Cc1ccnc(Nc2nc3ccccc3o2)n1 [CBK022772] | 81.7183
45 | CC(C)(C)c1cc(C(c2ccccc2O)N2CCOCC2)cc(C(C)(C)C)c1O (stereo not drawn) [CBK262998] | 48.5961
46 | Cc1ccc(C)c2c1CCCC2N1CCC(NS(C)(=O)=O)CC1 (stereo not drawn) [CBK304038] | 50.2039
47 | c1csc(CN2CCC(c3cc4nccnc4[nH]3)CC2)c1 [CBK281520] | 111.877
48 | CC(=O)Nc1ccccc1-c1nc2ccccc2o1 [CBK287568] | 114.354
49 | CN(CCN1CCCCC1)C(=O)c1cc2ccc(N(C)C)cc2[nH]1 [CBK281830] | 118.205
50 | Cc1ccc(-c2cc(C(=O)N(C)CC3(C)COC3)[nH]n2)cc1 [CBK281717] | 117.949
51 | COc1ccc(C(=O)N2CCC3(CCCN(C(=O)c4cscn4)C3)C2)cc1OC (stereo not drawn) [CBK131659] | 72.5192
52 | O=C(O)CSc1nc(O)c2c(-c3ccccc3)csc2n1 [CBK268067] | 117.908

Row | SMILES | % of control remaining
53 | Cc1ccc(C2(O)CCN(Cc3c(C)nc4sccn34)CC2)cc1 [CBK282734] | 103.51
54 | O=C(NC(c1ccc(-c2ccccc2)cc1)c1cnccn1)C1CCN(C/C=C/c2ccccc2)CC1 (stereo not drawn) [CBK147984] | 82.3731
55 | Cc1ccc(NC(=O)COc2ccccc2/C=C/C(=O)O)cc1C [CBK287026] | 108.695
56 | COc1ccc(C)cc1N1CCCN(c2cc(C)ccc2OC)C1=O [CBK006937] | 9.427
57 | COc1cccc2sc(NC(=O)c3ccc4ncsc4c3)nc12 [CBK287365] | 140.648
58 | S=C1C=C(c2ccccc2)Nc2ccccc2N1 [CBK288438] | 66.1636
59 | CCNC(=O)c1ccc(-c2ccc(C(=O)N(C)C)cc2)nc1 [CBK158361] | 95.9023
60 | COc1ccc(Cl)cc1NC(=O)CCN1CCN(C)CC1 [CBK278177C] | 111.223
61 | CCCCn1c(SCCC(=O)Nc2ccccc2C(=O)c2ccccc2)n[nH]c1=O [CBK296693] | 123.079
62 | Cc1cc(C)cc(NC(=O)c2ccccc2NS(=O)(=O)c2cccc(Cl)c2)c1 [CBK113887] | 88.8931
63 | CCN1CCN(c2ccc(NC(=O)c3ccc(OCc4ccccc4)cc3)cc2Cl)CC1 [CBK266683] | 98.3978
64 | CC(C)(C)NC(=O)Cn1cncc1-c1ccc2c(c1)CC(C)(C)O2 [CBK281980] | 97.0655
65 | Fc1ccc(-c2cccc(Nc3ccc(Oc4ccccc4)cc3)n2)cc1Cl [CBK037699] | 103.048
66 | O=C(O)c1ccccc1CSc1ccccn1 [CBK270213] | 112.315
67 | O=C(c1cccc(-c2cc3ccccc3oc2=O)c1)N1CCN(c2ccc([N+](=O)[O-])cc2Cl)CC1 [CBK269704] | 64.7342
68 | O=C(CN1CCC2(CC1)CN(C(=O)CO)c1ccccc12)Nc1ccc(F)c(Cl)c1 [CBK131509] | 73.3321
69 | C[C@H](Nc1nc(-c2cccc(-c3ccccc3)c2)cnc1N)c1ccccc1 [CBK063752] | 95.6442
70 | CC1CCN(Cc2ccc(-c3ccc(CC(=O)NCCc4ccc(O)cc4)cn3)cc2)CC1 [CBK158384] | 76.6425
71 | Cc1cccc2c3c([nH]c12)C1(CCN(CCCC#N)CC1)NCC3 [CBK039818] | 86.612
72 | Cc1cc(/C=C2/NC(=S)NC2=O)c(C)n1-c1ccc(Sc2ccc([N+](=O)[O-])cc2)cc1 [CBK263883] | 109.41
73 | O=C(CC(=O)Nc1c(Cl)cccc1C(F)(F)F)Nc1c(Cl)cccc1C(F)(F)F [CBK263148] | 90.9031
74 | COc1ccc(C2(C)NC(=O)N(CC(=O)Nc3ccc(NC(C)=O)cc3)C2=O)cc1 (stereo not drawn) [CBK295182] | 102.74
75 | Nc1ncc(-c2ccc(Cl)cc2)c(C2CCCN(C(=O)C3CCCC3)C2)n1 (stereo not drawn) [CBK285571] | 123.873
76 | Cn1c(COc2ccccc2)nnc1SCc1nnc(-c2ccccc2)o1 [CBK269628] | 95.0895
77 | Nc1nc(Cc2ccc(F)cc2)no1 [CBK028717] | 65.8739
78 | O=C(Nc1cccc2cc[nH]c12)c1cccc(F)c1Cl [CBK160074] | 71.5834

Reference: publication PMC12040169 (PLOS Biology, 2025)
